About 230 (0.21%) of roughly 110,000 compounds showed an effect of 50% or more. This is one part of the list.
Each compound was assayed against DPAP1 (Plasmodium falciparum, UniProt Q8IIJ9) (assay: primary screen, percent inhibition; read by cleavage of a fluorogenic dipeptide substrate; higher = more effect of the substance).
Design: species or system P. falciparum D10 trophozoite lysates; single well
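Note: 30 min substrate incubation versus DMSO and 10 µM JCP410 controls.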

DPAP1, sequence (Q8IIJ9 whole entry, looked up): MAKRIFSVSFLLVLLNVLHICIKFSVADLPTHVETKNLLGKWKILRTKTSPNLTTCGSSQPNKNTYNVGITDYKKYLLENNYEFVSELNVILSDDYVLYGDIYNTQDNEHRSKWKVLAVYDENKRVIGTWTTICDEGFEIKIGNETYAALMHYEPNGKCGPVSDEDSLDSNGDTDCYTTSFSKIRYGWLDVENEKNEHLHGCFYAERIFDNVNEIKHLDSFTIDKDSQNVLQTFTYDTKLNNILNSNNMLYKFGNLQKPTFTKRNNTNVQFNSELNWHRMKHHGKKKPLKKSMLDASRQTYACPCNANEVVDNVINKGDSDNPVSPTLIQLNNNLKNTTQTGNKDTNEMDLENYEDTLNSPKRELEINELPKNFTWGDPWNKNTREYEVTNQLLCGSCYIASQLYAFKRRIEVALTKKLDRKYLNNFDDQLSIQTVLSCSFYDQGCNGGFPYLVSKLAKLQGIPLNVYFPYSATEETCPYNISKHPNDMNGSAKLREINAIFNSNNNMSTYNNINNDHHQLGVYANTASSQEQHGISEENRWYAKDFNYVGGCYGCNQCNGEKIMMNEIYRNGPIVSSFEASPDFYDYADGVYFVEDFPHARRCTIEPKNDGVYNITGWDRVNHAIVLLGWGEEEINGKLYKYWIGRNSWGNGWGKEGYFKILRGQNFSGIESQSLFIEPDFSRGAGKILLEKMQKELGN

SMILES | % Inhibition @ 10 uM [%]
COc1cc(C2CC(=O)NC(SCC(N)=O)=C2C#N)cc(Br)c1O (stereo not drawn) | 0.673
CC(=O)c1cccc(NC(=O)c2ccccc2C(=O)O)c1 | -0.795
COc1cccc(/C=C/c2ccnc(NS(=O)(=O)c3ccc(N)cc3)n2)c1 | -1.29
Cc1cccc(OCCCCCN2CCCCC2)c1 | -2.28
CC(=O)/C=C1\NC(C)(C)Cc2ccccc21 | 5.2
CCCCOC(=O)C1=C(C)NC(=O)NC1c1ccc(Cl)cc1 (stereo not drawn) | 0.162
COc1cc(CNc2ccc(F)cc2)cc(Cl)c1OCC(=O)NC(C)(C)C | -1.82
CCc1ccccc1NC(=O)c1cc2nc(C(F)F)cc(C(F)F)n2n1 | -1.36
COc1ccc(C(=O)Nc2ccccc2C(=O)O)cc1OC | 3.32
Cc1cc(C(F)(F)F)nn1CC(=O)Nc1sc2c(c1C(N)=O)CCCCC2 | 54.5
COc1ccc(CCNC(=O)c2cc3c(O)nc4ccccc4c3s2)cc1OC | 7.59
CC(C)(C)C(=O)Nc1ccccc1C(=O)Nc1cccnc1 | -3.09
Cc1ccc(S(=O)(=O)N2CCC(C(=O)NC3CCc4ccccc43)CC2)cc1 (stereo not drawn) | 2.29
COc1ccc(CN2CCN(Cc3cc(OC)ccc3O)CC2)cc1 | -1.6
O=C(CN(Cc1ccc(Br)cc1)S(=O)(=O)c1ccccc1)Nc1ccccc1F | -4.43
S=C(NC12CC3CC(CC(C3)C1)C2)N1CCOCC1 | 1.54
O=C(c1ccc(Cn2cc(Br)cn2)cc1)N1CCN(c2ccccc2)CC1 | 1.27
Cc1ccc2occ(CC(=O)N(Cc3cccs3)C3CCS(=O)(=O)C3)c2c1 (stereo not drawn) | 4.18
CSc1ccc(CCNC(=O)CCCn2ccc3cc(S(=O)(=O)N4CCCC4)ccc32)cc1 | -2.68
Cc1nnc(N2CCC(C(=O)NC(C)c3ccccc3)CC2)c2nn(-c3ccc(Cl)cc3)c(C)c12 (stereo not drawn) | -4.18
Nc1[nH]ncc1-c1ccc(F)cc1 | -4.74

SMILES | % Inhibition @ 10 uM [%]
CCCCOc1ccc(C(=O)Nc2ccc(CN3CCOCC3)cc2)cc1 | 4.03
COC(=O)c1ccc2c(c1)sc1nc(-c3ccc(Br)cc3)cn12 | 3.39
Cc1cc(C)nc(NS(=O)(=O)c2ccc(N/C=C\C(=O)c3ccc4ccccc4c3)cc2)n1 | 0.317
COC(=O)C1=C(O)/C(=C\c2ccc(C)cc2)N=C1C | 3.57
Brc1ccc(N2COc3ccc4ccccc4c3C2)cc1 | 1.64
Cc1sc2nc(SCC(=O)N3CCOCC3)n(-c3ccc(F)cc3)c(=O)c2c1C | 2.46
CS(=O)(=O)N(CC(=O)N1CCN(c2ccccc2)CC1)C1CCCCC1 | -2.32
Cc1nnc(N2CCCC(C(=O)N3CCN(C)CC3)C2)c2nn(-c3ccccc3)c(C)c12 (stereo not drawn) | -0.696
Cc1c(CC(=O)NCCc2ccccc2F)c(=O)oc2cc(O)ccc12 | -2.57
Clc1ccc(-c2noc(-c3ccc(-c4ccccc4)cc3)n2)cc1 | 1.08
CCOC(=O)C1=CN(Cc2ccc(OC)cc2)C=C(C(=O)OCC)C1c1cc(OC)ccc1OC | 0.219
COc1ccccc1C(=O)Nc1ccccc1C(=O)NC(C)c1ccccc1 (stereo not drawn) | -3.92
Cc1cccc(C(C2=C(O)CCCC2=O)C2=C(O)CCCC2=O)c1 | -4.62
COc1ccc(C(=O)NCc2c(CC(C)C)oc(C)c2C(=O)O)cc1 | -0.403
CC(CNC(=O)c1cccs1)OC12CC3CC(CC(C3)C1)C2 (stereo not drawn) | 0.9
CCOC(=O)C1=C(NC(=O)c2ccc(C)cc2)S/C(=C\c2ccc(OCC)cc2OCC)C1=O | 6.28
CC1CCC(NCC(C)(C)CN(C)C)CC1 (stereo not drawn) | -0.303
Cc1cc(C)c(C#N)c(SCC(=O)Nc2ccc(Cl)c(Cl)c2)n1 | -0.736
CCC(=O)Nc1ccc(S(=O)(=O)Nc2ccc(C)cc2C)cc1 | -4.52
COc1ccc(-c2noc(CSc3nnc(C)n3-c3cccc(C)c3)n2)cc1OC | 2.89
CCC(C)NC(=O)c1oc2ccc3c(c2c1C)C(=O)CC1(CCCC1)O3 (stereo not drawn) | 3.87

SMILES | % Inhibition @ 10 uM [%]
CCc1ccc(Oc2nc3c(C)cccn3c(=O)c2/C=C(\C#N)C(=O)NCCOC)cc1 | 3.63
CCOC(=O)c1c(NC(=O)CCc2ccc(CC)o2)sc(C)c1C | 9.61
COCCN1C(=O)C(O)=C(C(=O)c2ccc3c(c2)CC(C)O3)C1c1cccc(OC)c1 (stereo not drawn) | 2.79
CCOc1ccccc1CNC(=O)c1ccc(CS(=O)c2ccccc2C)o1 (stereo not drawn) | 3.36
CC(C)NC(=O)c1c(NC(=O)c2cccs2)sc2c1CCCC2 | 0.392
C/C=C/C(=O)Nc1ccc(NC(C)=O)cc1 | -1.86
CCN1C(=O)/C(=C/c2cccs2)S/C1=N/c1ccc(OC)cc1 | -9.45
Cc1cccc(CCNc2cnn(C34CC5CC(CC(C5)C3)C4)c(=O)c2Cl)c1 | 1.89
COC(=O)NCCc1cc(OC)c(OC)cc1S(=O)(=O)N1CCOCC1 | 3.68
O=C(O)C1Nc2ccc(F)cc2C2C=CCC12 (stereo not drawn) | 4.26
CCc1ccc(/C=C2/C(=O)NC(=O)N(c3ccc(OC)cc3)C2=O)cc1 | 4.65
Cc1ccc(NS(=O)(=O)c2cc(Cl)ccc2Cl)cc1C | -3.44
COc1ccc(OC)c(NC(=O)c2ccc(C(F)(F)F)cc2)c1 | -4.66
Cc1cccc(NC(=O)CN(c2cccc(Cl)c2C)S(C)(=O)=O)c1 | -3.63
COc1ccc(CCNCc2cccn2-c2c(C(=O)O)cnn2-c2ccccc2)c(OC)c1 | 1.63
Cc1ccccc1OCC(=O)Nc1ccc(F)cc1 | 0.247
CC(=O)Nc1cccc(NC(=O)c2ccc(N(C)C)cc2)c1 | -3.92
CSCCCN1CCN(CCO)CC1 | 0.472
COc1ccc(/C=C/C(=O)c2ccc3ccccc3c2O)cc1CN1CCOCC1 | -3.74
COCC/N=c1/c(-c2ccc(C)cc2)c(O)c1=O | -1.15
COc1ccc(Nc2ccc(C(F)(F)F)cc2[N+](=O)[O-])cc1 | -0.192
